# Test results: PubChem BioAssay AID1508642 (National Center for Advancing Translational Sciences (NCATS), 2021)
# Among all 43,000 compounds or so, about 200 (0.47%) were called active. Not shown: some 12% with an inconclusive outcome. The call rests on the fitted dose curve; in most records, active means well fitted cell-killing curve with a large enough effect; inconclusive means small, poorly fitted or top-dose-only effect, or effect the other way; inactive means flat fitted curve, though single readings scatter. Some of the results follow.
# Experiment: Cell viability qHTS assay in S16 Pmp22-F2sN cells; further: nearly all actives have a fitted effect of over 65% in size
# Conditions: S16 Pmp22-F2sN Schwann cells (luciferase reporters placed in the Pmp22 gene) viability, CellTiter-Glo, 24 h; series mostly up to 57.5 µM; activity change, negative = cytotoxicity: at the top concentration
# Method in brief: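 Luminescence from CellTiter-Glo, read by CCD camera after a 15 min room-temperature incubation, served as the viability signal. Reporter Schwann cells (S16 Pmp22-F2sN) had been treated with pin-transferred compounds for 24 h at 37C.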
# On the % scale 0 is the no-effect control and ±100 the full control effect.
row,SMILES,"activity change, negative = cytotoxicity"
1,CCOc1ccc(CCNC(=O)c2c(C)oc3ncn(C)c(=O)c23)cc1,inactive: 4.55%
2,Cc1cc(-c2ccc(C)c(S(=O)(=O)Nc3cccc(C#N)c3)c2)on1,inactive: -2.33%
3,O=C(Cn1ccc2cc(S(=O)(=O)N3CCCCCC3)ccc21)NCCc1ccc(Cl)cc1,inactive: -16.5%
4,Cc1cccc(C(=O)Nc2ccc(OCc3cc(=O)n4ccsc4n3)cc2)c1,inactive: 13.4%
5,CCN(CC)S(=O)(=O)c1ccc2c(c1)N(CC(=O)N1CCN(c3ccc(Cl)cc3)CC1)C(=O)CO2,inactive: -18.3%
6,O=C(NC1CCCCCC1)C1c2ccccc2C(=O)N1Cc1ccccc1Cl (centres undefined),inactive: 2.57%
7,CC(C)OC(=O)c1cccnc1SCC(=O)Nc1ccc(C(F)(F)F)cc1Cl,inactive: 3.92%
8,CCN1CCN(C(=O)c2ccc3c(c2)N(Cc2ccccc2F)C(=O)c2ccccc2S3=O)CC1 (centres undefined),inactive: 14.7%
9,Cc1ccc(-n2c3c(cc(C(=O)Nc4cccc(Cl)c4)c2=O)C(=O)CC(C)(C)C3)cc1,inactive: 0.664%
10,Cc1ccc(Cl)cc1N1CCN(C(=O)CCCCCn2c(=O)[nH]c3ccccc3c2=O)CC1,inactive: -0.718%
11,CCOc1ccccc1-c1nc(SCC(=O)c2ccc(OC)c(Br)c2)n[nH]1,inactive: 13.5%
12,CCc1ccc(NC(=O)C2CCCN(S(=O)(=O)c3c(C)noc3/C=C/N(C)C)C2)cc1 (centres undefined),inactive: -0.327%
13,CCOc1ccc(-c2cc(-c3nc(-c4ccc(C)cc4)no3)[nH]n2)cc1,inactive: -12.1%
14,CC(=O)c1cccc(NC(=O)C(C)n2c(=O)cc(-c3ccccc3)c3c(C)nn(C)c32)c1 (centres undefined),inactive: -20%
15,COc1cccc(CNC(=O)c2ccc(NC(=O)N3CCCCc4ccccc43)cc2)c1OC,inactive: 4.7%
16,CCOC(=O)C1CCN(C(=O)CSc2n[nH]c(-c3ccc(F)cc3)n2)CC1,inactive: 5.85%
17,COc1cccc(CNC(=O)c2c(C)oc3nc(C)nc(N4CCOCC4)c23)c1,inactive: 4.26%
18,CCc1cccc(C)c1NS(=O)(=O)c1c(C)nc2sccn2c1=O,inactive: 18.7%
19,O=C(Cn1c(=O)oc2cc(S(=O)(=O)N3CCCC3)ccc21)NCc1ccc(F)cc1,inactive: -14.7%
20,CCN1C(=O)c2ccccc2S(=O)(=O)c2ccc(C(=O)NCc3ccccc3Cl)cc21,inactive: -3.71%
21,COC(=O)CSc1ncc2c(n1)-c1ccccc1N(Cc1cccc(F)c1)S2(=O)=O,inactive: -1.36%
22,Cc1nc2c(-c3ccc(F)cc3)c(C)nn2c(C)c1CCC(=O)N1CCN(c2ccc(F)cc2)CC1,inactive: -0.325%
23,Cc1cccc(CCNC(=O)c2ccc3c(c2)nc2n3CCCCC2)c1,inactive: -2.68%
24,Cc1oc(-c2cccc(Cl)c2)nc1CSc1nnc(C)n2c1cc1occc12,inactive: -0.648%

row,SMILES,"activity change, negative = cytotoxicity"
1,COC(=O)c1c(NC(=O)c2nc(SC)ncc2Cl)sc2c1CCCC2,inactive: 5.75%
2,CC(=O)NCc1nc2cccnc2n1Cc1ccccc1,inactive: 4.14%
3,COc1ccccc1N1CCN(C(=O)Cn2cnc3sc(C)c(S(=O)(=O)N4CCC(C)CC4)c3c2=O)CC1,inactive: 0.621%
4,CCc1cccc(C)c1NC(=O)Cn1c(=O)n(-c2cccc(C)c2)c(=O)c2c1c1cc(C)ccc1n2C,inactive: -0.818%
5,COc1ccc(Cl)cc1N(C)C(=O)Cc1noc2ccc(C)cc12,inactive: 2.73%
6,CCC(C)NC(=O)c1ccc2c(c1)N=C(C)c1cc(C)ccc1S2 (centres undefined),inactive: -16.6%
7,Cc1ccc2c(=O)cc(C(=O)Nc3c(C(=O)c4ccccc4)oc4ccccc34)oc2c1C,inactive: 0.457%
8,CC(C)(C)OC(=O)N1CCC(c2c(C(=O)NCc3ccccn3)cnn2-c2ccc(F)cc2)CC1,inactive: -2.58%
9,COc1ccc2c(c1)c1c(c(=O)n(-c3cccc(C)c3)c(=O)n1CC(=O)N1CCCC1)n2C,inactive: -16.7%
10,Cc1cc(C)c2c(=O)cc(C(=O)Nc3ccc(S(=O)(=O)Nc4onc(C)c4C)cc3)oc2c1,inactive: -1.22%
11,COc1ccc(-n2nnc(C(=O)Nc3ccccc3F)c2N)cc1,inactive: -0.784%
12,CCc1ccccc1N(c1nc(-c2ccc(OC)c(OC)c2)no1)c1nc(-c2ccc(OC)c(OC)c2)no1,inactive: -0.454%
13,CCN1C(=O)c2ccccc2Sc2ccc(NC(=O)Cc3ccc(OC)cc3)cc21,inactive: -21.4%
14,CCCn1cc(S(=O)(=O)c2cc(C)ccc2C)c(=O)c2cc(F)c(N3CCCCCC3)cc21,inactive: -11.1%
15,COc1ccc(-c2cc(-c3ccccc3)nc3c2COc2ccccc2-3)cc1,inactive: 27.5%
16,CC(C)CC(=O)Nc1nnc2n1CCS2,inactive: -4.15%
17,CCOc1ccc(NCc2cccn2-c2nnc(N3CCC(C(=O)NCc4cccc(OC)c4)CC3)s2)cc1,inactive: -20.8%
18,COc1ccc(CNC(=O)C2CCN(S(=O)(=O)c3ccc4nc5c(c(C(=O)O)c4c3)CC(C)CC5)CC2)cc1 (centres undefined),inactive: -1.42%
19,CCc1ccc(NC(=O)C2CCCN(S(=O)(=O)c3cccc4nonc34)C2)cc1 (centres undefined),inactive: 30%
20,CCOc1ccc(NC(=O)Cn2cnc3c(oc4ccccc43)c2=O)cc1,inactive: 0.719%
21,CN1C(=O)Cc2cc(S(=O)(=O)CCC(=O)N3CCN(c4cccc(Cl)c4)CC3)ccc21,inactive: -2%
22,COc1cccc(NS(=O)(=O)c2cc3c4c(c2)C(C)C(=O)N4CCC3)c1 (centres undefined),inactive: -2.71%
23,Cc1cc(C)c(NC(=O)Cn2nnc(C(=O)Nc3ccc(F)cc3F)c2N)c(C)c1,inactive: -2.49%
24,COc1ccc(-c2cc(OC(=O)c3cccc(C)c3)c3c(C)oc(C)c3c(=O)c2)cc1,inactive: 9.72%

row,SMILES,"activity change, negative = cytotoxicity"
1,CC(=O)Nc1ccc(NC(=O)c2c(C)nn(-c3ccccc3)c2-n2cccc2)cc1,inactive: -14.4%
2,Cc1ccc(CNC(=O)c2ccc3c(c2)nc2n3CCCC2)cc1,inactive: -4.7%
3,Cc1cc(C)n(-c2nc(C)c(C)c(=O)n2CC(=O)Nc2ccc(Cl)c(Cl)c2)n1,inactive: 4.93%
4,COc1ccc(-c2nnc(SCC(=O)Nc3cccc(Cl)c3C)nc2-c2ccc(OC)cc2)cc1,inactive: 0.546%
5,COc1ccc(NC(=O)CCNS(=O)(=O)c2ccc3c(c2)CCN3C(=O)C2CC2)cc1Cl,inactive: -24.8%
6,CCOC(=O)c1cc(-c2ccccc2)n(CCCC(=O)Nc2ccc(C)cc2Cl)c1C,inactive: -3.41%
7,COc1cccc(NC(=O)c2nnn(Cc3ccc(OC)c(Br)c3)c2N)c1,inactive: -6.11%
8,COc1cc(NC(=O)c2cc3ccc4cccnc4c3[nH]2)cc(OC)c1OC,inactive: 5.19%
9,COc1ccccc1N1CCN(S(=O)(=O)CCNC(=O)C2CC(=O)N(c3ccccc3)C2)CC1 (centres undefined),inactive: -0.473%
10,CC(Nc1ccc(-c2nc(-c3ccco3)no2)cc1[N+](=O)[O-])c1ccccc1 (centres undefined),inactive: 6.56%
11,CC(C)(C)C(=O)Nc1cccc(C(=O)OCc2cc(=O)n3nc(C4CC4)sc3n2)c1,inactive: 4.93%
12,Cc1ccccc1NC(=O)CCNC(=O)Cn1ccc2ccccc2c1=O,inactive: 7.89%
13,Cc1ccc(NC(=O)N2CCN(Cc3nc4ccc(C)cc4o3)CC2)c(Cl)c1,inactive: 24.1%
14,CCOC(=O)c1ccc(NC(=O)CSc2nc(-c3cccs3)cc(C(F)(F)F)c2C#N)cc1,inactive: 3.41%
15,CCS(=O)(=O)c1nc(S(=O)(=O)c2ccc(C)cc2)c(NCC(C)C)s1,inactive: -9.96%
16,CCOC(=O)N1CCc2c(sc(NCc3sccc3C)c2C(=O)Nc2cc(Cl)ccc2OC)C1,inactive: 2.46%
17,CCC(=O)N1CCc2cc(CNC(=O)c3ccc(C#N)cc3)ccc21,inactive: 10.7%
18,CC(NC(=O)c1cc2ccccc2o1)c1ccccc1 (centres undefined),inactive: 4.25%
19,CCc1ccc(S(=O)(=O)c2cn(C)c3cc(F)c(F)cc3c2=O)cc1,inactive: -17.7%
20,Cc1ccc(NC(=O)Cn2c(-c3nonc3N)nc3ccccc32)cc1C,inactive: 0.548%
21,COc1ccccc1CN1CCN(C2CCN(C(=O)Nc3ccccc3)CC2)C(=O)C1=O,inactive: 2.68%
22,CCOc1ccc(NC(=O)CSC2=Nc3ccccc3C3=NC(Cc4ccccc4)C(=O)N23)cc1 (centres undefined),inactive: -1.64%
23,COc1ccc(-c2nc3sc(CCNC(=O)C(=O)Nc4ccc(C)c(F)c4)c(C)n3n2)cc1,inactive: 1.26%
24,CCCn1nc(NC(=O)c2cccc(Cl)c2)c2cc3cccc(C)c3nc21,inactive: 2.06%

row,SMILES,"activity change, negative = cytotoxicity"
1,COc1ccc(Nc2nc3ccccc3nc2NS(=O)(=O)c2ccc(Cl)cc2)cc1OC,inactive: -25.1%
2,COc1ccccc1CCNC(=O)C(=O)NCC(c1ccco1)S(=O)(=O)c1ccccc1 (centres undefined),inactive: -1.27%
3,CC(=O)Nc1ccc(NC(=O)c2cnn(-c3ccccc3)c2C2CCN(C(=O)OC(C)(C)C)CC2)cc1,inactive: 1.92%
4,CC(C)c1cnc2c(c1SCC(=O)O)c(=O)n(C)c(=O)n2C,inactive: 3.48%
5,COc1cccc(-c2nc(SCc3ccc(C)cc3)n3[nH]c(=O)cc3n2)c1,inactive: 18.9%
6,O=[N+]([O-])c1ccc(S(=O)(=O)N2CCn3cccc3C2c2ccccc2F)cc1 (centres undefined),inactive: -1.97%
7,CC(NC(=O)C1CCN(S(=O)(=O)c2ccc3c(c2)oc(=O)n3C)CC1)c1ccccc1 (centres undefined),inactive: -13.5%
8,CCOC(=O)c1c(C)oc2ncnc(N3CCN(c4ccccc4)CC3)c12,inactive: -0.138%
9,Cc1ccc(C)c(N2CCN(c3nc4ccc(Cl)cc4n4cnnc34)CC2)c1,inactive: 5.47%
10,Cc1ccc(S(=O)(=O)NCCc2csc3nc(-c4ccccc4F)nn23)cc1C,inactive: 0.752%
11,CN(C(=O)c1c2c(nc3ccccc13)C(=O)N(C1CCCCC1)C2)c1ccc(F)cc1,inactive: -16.9%
12,Cc1ccc(-c2cc3c(n2-c2ccc(F)cc2)CC(C)(C)CC3=O)cc1,inactive: 3.21%
13,Cc1ccccc1OCc1nnc(SCc2cc(=O)c3ccc(C)c(C)c3[nH]2)n1C,inactive: -28.1%
14,COc1ccccc1-c1nc(S(=O)(=O)c2ccccc2)c(N2CCC(C)CC2)o1,inactive: -29.5%
15,COc1ccc(NC(=O)Cn2c(=O)n(Cc3ccccc3)c(=O)c3oc4ccccc4c32)cc1Cl,inactive: -14.2%
16,Cc1ccc(C)c(-n2cc(-c3ccccc3)nc2SCC(=O)Nc2ccccc2)c1,inactive: 2.32%
17,Cc1nc(N2CCCC2)ncc1C(=O)N1CCN(c2ccc(Cl)cc2)CC1,inactive: -9.03%
18,CCOC(=O)C(=O)Nc1nnc2n1CCS2,inactive: -2.71%
19,CCOc1ccc(Nc2ncnc3c2cnn3-c2ccc(F)cc2)cc1,inactive: 2.87%
20,CCOC(=O)c1ccccc1NC(=O)Cn1c(=O)n(CCCC(=O)NCc2ccc3c(c2)OCO3)c(=O)c2ccccc21,inactive: 16.8%
21,Cn1cc(S(=O)(=O)N2CCCCC2)cc1C(=O)N1CCN(c2ccccc2F)CC1,inactive: 2.38%
22,COc1cccc(-c2csc(-c3c(N)c(C(=O)c4ccccc4)n4ccccc34)n2)c1,inactive: 27.4%
